# Some of the results follow. Antibody binding of pooled human sera (four to six donors per pool; dilution not stated) to peptides of the Trypanosoma cruzi antigen TSSA on microarrays. Quantile-normalised fluorescence in arbitrary units, mean of duplicate arrays; higher = more binding. No active / inactive call. The uninfected pools are read here as the healthy donors of the same country. The strongest signals lie near the top of the scale (about 60,000).
# Columns and labels:
# Experiment in all cases: antibody binding signal (normalised fluorescence) (arbitrary fluorescence units); higher = stronger serum antibody binding to peptide
# [1] = test system: pooled sera of chronic Chagas disease patients, Argentina
# Protocol: (§1)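 Microarray of overlapping 15-residue peptides of the four Trypanosoma cruzi TSSA reference variants and 8- to 13-residue peptides of TSSAII 24-62, probed with one serum pool per country.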
# [2] = test system: pooled sera of chronic Chagas disease patients, Bolivia
# Protocol: as §1
# [3] = test system: pooled sera of chronic Chagas disease patients, Brazil
# Protocol: as §1
# [4] = test system: pooled sera of chronic Chagas disease patients, Colombia
# Protocol: as §1
# [5] = test system: pooled sera of chronic Chagas disease patients, Mexico
# Protocol: as §1
# [6] = test system: pooled sera of chronic Chagas disease patients, USA
# Protocol: as §1
# [7] = test system: pooled sera of uninfected people, Argentina
# Protocol: as §1
# [8] = test system: pooled sera of uninfected people, Bolivia
# Protocol: as §1
# [9] = test system: pooled sera of uninfected people, Colombia
# Protocol: as §1
# [10] = test system: pooled sera of uninfected people, Mexico
# Protocol: as §1
# [11] = test system: pooled sera of uninfected people, USA
# Protocol: as §1
Sequence,antibody binding signal [1],antibody binding signal [2],antibody binding signal [3],antibody binding signal [4],antibody binding signal [5],antibody binding signal [6],antibody binding signal [7],antibody binding signal [8],antibody binding signal [9],antibody binding signal [10],antibody binding signal [11]
ANGGSTSSTPP,2140,2090,1020,4140,2950,2440,281,478,189,428,322
LTACTTANGGSTSST,189,202,365,208,268,269,97.9,162,252,190,109
SQPGASSGEAEASSN,245,139,6520,207,251,1730,132,143,123,140,80
TPPGTDKKTAAGGTP,8190,1180,3600,25200,6960,6980,191,111,184,1260,201
TPSPSGASSGEAEAS,132,124,4180,89.2,408,139,249,141,77.2,92.4,275
TISTPPSGTEKKAAA,38800,5330,34400,1030,18900,4240,3220,468,255,111,810
DKKTAAGEAPSPSGA,577,231,414,524,442,6370,222,156,1030,304,170
SGASSGEAEASSNKN,216,2180,4030,439,1270,1420,220,219,121,1390,878
TANGGSTSSTPPS,143,231,362,199,350,152,144,177,107,134,217
QPGASSGEAEASSNK,331,1910,8870,589,1180,1820,245,295,126,1980,1760
PSGTEKKAAAGEAPS,15500,2500,7700,4600,4650,12100,621,461,201,266,372
GSTSSTPPSGT,291,259,603,208,271,141,206,208,115,150,83.6
PGASSGEAEA,223,119,7070,143,121,75.2,142,83.5,94.2,78.6,62.9
APSQPGASS,963,1340,446,586,11900,252,172,318,303,3630,275
PSQPGASSGEAE,326,166,9050,126,139,143,225,110,209,164,99
SSTPPSGTENKPA,55800,52500,54400,334,13000,45400,10200,1680,837,753,1000
PSGTENKPATGE,42900,41200,45500,893,2940,24100,2120,1480,359,371,629
TDKKTAAGEAPSPSG,441,297,685,473,438,6850,172,156,1020,148,163
ANGGSTISTPPSGTE,8580,1070,7380,1500,690,1410,493,204,178,195,92.8
TGEAPSQP,11700,24700,19200,87.5,78.9,4170,136,75.1,73.7,74.6,54.4
TENKPATGEAPSQ,47700,52300,50500,268,376,38600,852,413,152,233,194
TACTTANGGSTSSTP,482,213,845,395,212,268,175,159,227,190,140
GSTISTPPSGTDKKT,15600,3130,36200,2500,21700,8540,412,101,160,609,157
EAPSQPGASS,6040,36000,905,111,118,448,173,159,192,174,161
NGGSTSSTPPSGT,274,211,615,391,203,126,329,193,123,163,90.4

Sequence,antibody binding signal [1],antibody binding signal [2],antibody binding signal [3],antibody binding signal [4],antibody binding signal [5],antibody binding signal [6],antibody binding signal [7],antibody binding signal [8],antibody binding signal [9],antibody binding signal [10],antibody binding signal [11]
ENKPATGEAP,46600,52200,50800,385,535,39700,961,635,179,257,265
GGSTSSTPPSG,368,180,329,250,212,114,186,240,102,146,127
SGTENKPATGEA,37200,30400,38400,227,575,22500,1310,1060,127,555,404
TSSTPPSGTENK,51400,50900,51300,235,6740,29900,2490,402,654,453,440
KKAAAGEAPSPSGAS,199,202,665,166,192,8030,256,225,97.9,70,187
LSACTTANGGSTIST,162,192,251,96.9,105,145,642,210,563,133,106
TENKPATGE,40500,26300,33600,206,616,19800,427,940,98.4,139,146
SQPGASSGE,326,126,8710,92.3,141,116,109,96.9,85.1,321,145
TTANGGSTSSTPPGT,178,217,649,155,176,147,177,174,310,173,97.7
ASSGEAEASS,105,107,183,453,183,85.5,146,124,89.7,94.2,95
STPPSGTENK,54100,46800,52300,322,8050,40100,3400,482,725,346,443
SSTPPSGTEN,36800,38100,28500,109,159,242,320,155,117,103,167
TGEAPSQPGASSG,16800,46200,22600,112,137,2640,165,117,101,172,94.9
TPPSGTENKPATGEA,46800,41600,45400,1070,3720,30700,8570,1280,542,655,729
SQPGASSGEAEAS,142,126,8370,97.4,140,115,212,131,112,80.7,205
PPSGTENKPA,53500,50700,49900,588,12900,29800,7490,2150,862,426,1190
PATGEAPSQPGASSG,42600,50800,48200,187,258,24500,483,148,160,196,155
PPSGTENKPATGE,45000,43700,45900,869,4260,28500,7100,1430,466,525,686
EAPSQPGASSGEA,7990,23000,8080,113,96.6,221,279,94.3,143,129,82.7
ISTPPSGTDKKTAAG,20600,5500,32900,4180,22000,3940,455,121,125,599,211
TPPSGTENKP,50100,49200,51200,307,8240,27400,7780,901,805,418,759
KAAAGEAPSPSGASS,197,344,5640,370,2130,6380,240,181,76.5,90,198
NKPATGEAP,45400,47800,46600,477,386,40300,926,755,210,270,154
ATGEAPSQPGASSGE,17100,37700,32200,315,344,8910,557,187,99.2,165,88.5
GTENKPATGE,36200,28100,35000,1840,2580,22000,564,1610,130,185,142
